Assay results: PubChem BioAssay AID1508623 (National Center for Advancing Translational Sciences (NCATS), 2021)
Hit rate of the full screen: of about 48,000 compounds, about 450 (0.94%) were called active. Another 19% or so got no clear call; they are omitted. Calls come from the whole dose curve; as a rule, active = well fitted inhibition curve with a large enough effect; inconclusive = small, poorly fitted or top-dose-only effect; inactive = no such curve, though single readings can be large or run the other way. Some of the results follow.

Experiment: Primary qHTS for Identification of Small Molecule Inhibitors of Huntingtin Promoter Activity; note: nearly all actives have a fitted effect of over 50% in size
Conditions: HEK293 HTT promoter firefly luciferase reporter (activity 0% = vehicle and -100% = no light), 24 h; series mostly up to 57.5 µM; activity change, negative = inhibition: at the top concentration
Method in brief: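 Luminescence was read after Dual-Glo reagent and a 10 min room-temperature incubation. Values were normalized to vehicle (0% activity) and zero RLU (-100% activity). Reporter HEK293 cells had been exposed to compounds (up to 57.5 uM final) for 24 h.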

Activity change, negative = inhibition, inactive:
Cc1cc(C)c2c(c1)c(C)cc1nnc(SCC(=O)c3ccccc3)n12 -2.57%
O=C(CSc1nccn1Cc1ccc(F)cc1)NCc1ccco1 -9.73%
CC(C)(C)c1ccc(C(=O)Nc2ccc(-c3nc4ccccc4o3)c(O)c2)cc1 -16.4%
O=C(CN1C(=O)c2ccccc2Sc2ccc(C(=O)N3CCOCC3)cc21)Nc1ccc(Cl)cc1F -2.57%
Cc1cccc(NC(=O)c2sc3ncnc(N(C)C4CCCCC4)c3c2C)c1C 0.862%
CCN(CC)c1ccc2cc(-c3nc4sc5c(c4c(=O)[nH]3)CCC(C(C)(C)C)C5)c(=O)oc2c1 (stereo unspecified) -20.8%
COc1cccc(NC(=O)c2c(C)oc3nc(C)nc(N4CCCC4)c23)c1 -0.636%
CCC(=O)N1CCc2cc(S(=O)(=O)CCC(=O)N3CCN(c4cccc(C)c4C)CC3)ccc21 -2%
COc1ccc(CC(=O)Nc2nc3c(s2)CCCC3)cc1 -25.8%
Cc1ccc2c(c1)N(C(=O)CCC(=O)NCc1cccc(F)c1)CC(C)O2 (stereo unspecified) -30.6%
Cc1cccc(C)c1NC(=O)c1cc(S(=O)(=O)N2CCc3ccccc3C2)ccc1F -16.7%
CCOc1ccc(-c2cc3c(=O)n(CC(=O)NCc4ccc(F)cc4)ccn3n2)cc1 70.2%
CCOC(=O)c1cccc(NC(=O)CCS(=O)(=O)c2ccc3c(c2)CCN3C(=O)CC)c1 -4.64%
COc1cccc2cc(-c3nc(-c4ccc(Cl)cc4)cs3)c(=O)oc12 -4.01%
COC(=O)C[C@](O)(CCCC(C)(C)O)C(=O)O[C@@H]1C(OC)=C[C@]23CCCN2CCc2cc4c(cc2[C@H]13)OCO4 24.8%
CCn1c(=O)c2sccc2n2c(CCCC(=O)N3CCN(c4ccc(F)cc4)CC3)nnc12 -17.3%
CCCCOc1ccc(C(=O)N(Cc2ccccc2)C2CCS(=O)(=O)C2)cc1 (stereo unspecified) -25.9%
COC(=O)c1ccc(NC(=O)C(=O)NCCc2csc(-c3ccc(F)cc3)n2)cc1 -20.1%
Cc1ccc(O)c(NC(=O)C2=CC(c3ccco3)=NS(=O)(=O)N2C)c1 -20.4%
O=C(CSc1ncccc1C(=O)Oc1ccccc1Cl)Nc1ccc(C(F)(F)F)cc1Cl 18.6%
COc1ccc(N2CCN(Cc3nc4c(c(=O)[nH]c(=O)n4C)n3Cc3ccccc3C)CC2)cc1 1.68%
Cc1csc2nc(COC(=O)CNC(=O)c3ccccc3)cc(=O)n12 -25.5%
Cc1ccc(CN(C(=O)COc2ccccc2[N+](=O)[O-])c2ccccn2)o1 2.82%
O=c1oc2ccccc2cc1-c1cn2cc(Cc3cc(Cl)ccc3Cl)sc2n1 -4.62%
COc1ccc(NC(=O)C2CCCN(S(=O)(=O)c3ccc(F)cc3)C2)cc1 (stereo unspecified) -14.5%
CCN(CC)S(=O)(=O)c1ccc2c(c1)N(CC(=O)Nc1cccc(C#N)c1)C(=O)CO2 -12.7%
CCc1nnc(NC(=O)CSc2nc3c([nH]c4ccccc43)c(=O)n2-c2ccc(Cl)cc2)s1 -18.2%
FC(F)(F)c1cc(-c2ccccc2)nc2cc(-c3ccccc3)nn12 11.6%
C[C@]12CC[C@@H]3c4ccc(O)cc4CC[C@H]3[C@H]1CC[C@H]2O -5.1%
Cc1cc(F)ccc1NC(=O)Cn1cc(S(=O)(=O)NC(C)C)c(S(=O)(=O)NC(C)C)c1 -9.32% [at 11.5 µM]
CCCCSc1nc2sc3c(c2c(=O)n1-c1ccccc1C)CC(C)(C)OC3 0.947%
COc1ccc(NC(=O)CNC(=O)Cn2c(C)cc3ccccc3c2=O)c(OC)c1 -9.1%
O=C(c1ccccc1)N1CCN(CCc2ccccn2)CC1 -20.5% [at 11.5 µM]
CCOc1ccc(-n2cc(-c3ccccc3)c3c(Nc4cccc(F)c4)ncnc32)cc1 -15.1%
COc1cccc(C(=O)Nc2c(C(=O)Nc3ccc(F)cc3)oc3ccccc23)c1OC 10.2%
CCOc1ccc(C(=O)Nc2nnc(SCc3cc(=O)n4ccccc4n3)s2)cc1 13.1%
Cc1ccc(NC(=O)c2cnc(N3CCCC3)nc2C)cc1F -17.1%
COc1ccc(NC2=C(c3ccc(C(F)(F)F)cc3)C(=O)c3ccccc32)cc1 14.5%
COc1cccc(NC(=O)CN2C(=O)c3ccccc3Sc3ncccc32)c1 3.37%
COc1ccccc1C(=O)Nc1c(C(=O)NC(C)(C)C)oc2ccccc12 -8.03%
CCOC(=O)c1ccc(NC(=O)c2cn3c4c(ccc(Cl)c4c2=O)OC(C)C3)cc1 (stereo unspecified) -0.501%
COc1ccc(S(=O)(=O)N2CCN(c3ccccc3OC)CC2)cc1 -24.8%
COc1cc(OC)c(N(C)C(=O)Nc2cn(CC(C)C)c(=O)c3ccccc23)cc1Cl -20.5%
CCCc1nn2c(=O)cc(COC(=O)CNC(=O)COc3ccc(C)cc3)nc2s1 -6.59%
Cc1ccc(-c2nc(C)c(CCNC(=O)c3ccccc3Br)s2)cc1 9.39%
NC(=O)c1cccc(-c2cccc(OC(=O)NC3CCCCC3)c2)c1 4.79%
Cc1cccc(-n2c(=O)c3ccccc3n(Cc3ccc(F)cc3)c2=O)c1 -19.9%
Cc1ccc(NC(=O)/C=C/c2ccccc2Cl)cc1Cl 25.6%
Cc1cc2c(cc1S(=O)(=O)Nc1cc(C(F)(F)F)cc(C(F)(F)F)c1)OCC(=O)N2 -22.4%
COc1ccc(NC(=O)C2=C(C)Nc3nc(SCc4ccc(Cl)cc4)nn3C2c2cccc(OC)c2OC)cc1 (stereo unspecified) -4%
COc1ccc(N(C)C(=O)Cn2cc(S(=O)(=O)N3CCN(c4ccccc4F)CC3)c3ccccc3c2=O)c(OC)c1 -23.1%
Cc1[nH]c(=O)c(C#N)cc1-c1ccc2nccn2c1
Cc1nc2cccnc2n1C1CCN(C(=O)Nc2ccc(Cl)cc2)CC1 9.39%
COC(=O)Cc1c(C)c2ccc3c(c2oc1=O)CN(Cc1ccccc1Cl)CO3 -22.6%
CCCCCCCCOc1ccc(C(=O)c2ccccc2)c(O)c1 -9.7%
COCCNC(=O)c1ccccc1NC(=O)c1nsc2ccccc12 12.6%
CNC(=O)CN1C(=O)COc2ccc(S(=O)(=O)N3CCC(C)CC3)cc21 -21.7%
Cc1ccc(-n2cnnn2)cc1S(N)(=O)=O -12.9%
CCc1cc2c(cc3c(=O)n(CC(=O)NCCc4ccc(OC)cc4OC)nc(CC)n32)s1 -5.61%
COC(=O)Cn1c(SCCOc2ccccc2OC)nc2ccccc21 -7.32%
Cc1cc2[nH]c(=O)c(=O)[nH]c2cc1S(=O)(=O)N1CCN(c2cccc(Cl)c2)CC1 0.855%
